# PubChem BioAssay AID588453 (National Center for Advancing Translational Sciences (NCATS), 2011)
# “And” between values parts separate entries of the source, which are not always exact repeats. Equal values may be shown once. The whole screen tested about 390,000 compounds, of which about 4,000 (1%) were called active. The inconclusive results got no clear call from the source; some entries with a clear call stand among them for comparison. Calls follow the shape of the dose curve; as a rule, active = well fitted inhibition curve with a large enough effect; inconclusive = small, poorly fitted or top-dose-only effect; inactive = no such curve, though single readings can be large or run the other way. Potencies of inconclusive entries are doubtful fits and often do not repeat.
# Biological target: Thioredoxin reductase 1, cytoplasmic (Rattus norvegicus) (UniProt O89049)
# Experiment: qHTS Assay for Inhibitors of Mammalian Selenoprotein Thioredoxin Reductase 1 (TrxR1): qHTS; also: nearly all actives have a fitted effect of over 65% in size
# Conditions: recombinant rTrxR1, NADPH fluorescence consumption, selenite substrate; series mostly up to 114 µM; activity change, negative = inhibition: at the top concentration
# Summary of the method: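 Rat TrxR1 (90 nM in the dispensed reagent) was pre-reduced with 400 uM NADPH for 5 min at room temperature, then incubated with compound for 15 min. After 400 uM selenite was added, NADPH fluorescence (Ex 340/Em 450 nm) was followed for 8 min.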
# % is scaled to controls: 0 for no effect and ±100 for the full control effect; potency is read from the fitted curve at half-maximal effect; tags tell the direction and shape of the fitted curve.
# Sequence of UniProt O89049 (O89049 whole entry, looked up): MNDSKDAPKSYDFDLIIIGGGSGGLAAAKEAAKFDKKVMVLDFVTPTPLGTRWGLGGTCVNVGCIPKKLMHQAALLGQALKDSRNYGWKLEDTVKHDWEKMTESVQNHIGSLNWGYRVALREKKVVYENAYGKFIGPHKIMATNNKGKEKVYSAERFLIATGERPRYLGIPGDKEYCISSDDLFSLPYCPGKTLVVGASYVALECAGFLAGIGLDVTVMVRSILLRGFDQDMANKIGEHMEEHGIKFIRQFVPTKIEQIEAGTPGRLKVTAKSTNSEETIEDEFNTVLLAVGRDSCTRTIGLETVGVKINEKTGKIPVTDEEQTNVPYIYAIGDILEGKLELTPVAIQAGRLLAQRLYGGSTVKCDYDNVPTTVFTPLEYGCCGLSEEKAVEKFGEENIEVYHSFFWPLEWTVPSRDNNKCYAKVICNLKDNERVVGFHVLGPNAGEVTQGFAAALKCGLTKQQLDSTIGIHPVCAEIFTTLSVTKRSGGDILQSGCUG
SMILES,Potency,"activity change, negative = inhibition"
Cc1[nH]c2ccc(-c3n[nH]c(=S)n3-c3ccccc3)cc2c1C,"inconclusive: 70.8 µM [inhibitor, partial curve, poor fit]",–
CCCCc1nc2sc3c(=O)[nH]c(=S)[nH]c3c2c2c1CCC2,"inconclusive: 50.1 µM [inhibitor, partial curve, poor fit]",–
CCCC1c2ccc(C)n2CCN1C(=O)Nc1ccc(F)cc1 (configuration not stated),"inconclusive: 1 µM [inhibitor, full curve, poor fit]",–
CC(=O)Nc1ccc(CN2CCc3c([nH]c4ccccc34)C2c2ccccn2)cc1 (configuration not stated),"inconclusive: 89.1 µM [inhibitor, partial curve, poor fit]",–
C#CCNC(=O)C1=C[C@@H](c2ccc(C#C)cc2)C[C@@H](OCCCCO)O1,"inconclusive: 15.8 µM [inhibitor, partial curve, poor fit]",–
CCN(CC)c1ccc(/C=C2\C(=O)c3ccc(C(=O)O)cc3C2=O)cc1,"inconclusive: 25.1 µM [inhibitor, full curve]",–
COc1ccc(-n2nc3cc(C)c(NC(=S)NC(=O)c4ccccc4C)cc3n2)cc1,"inconclusive: 0.1 µM [inhibitor, full curve, poor fit]",–
Oc1c(CN2CCOCC2)cc(CN2CCOCC2)c(O)c1CN1CCOCC1,"inconclusive: 0.316 µM [inhibitor, partial curve, poor fit]",–
O=c1[nH]c(/C=C\c2ccc(O)c(O)c2)nc(O)c1[N+](=O)[O-],"inconclusive: 89.1 µM [inhibitor, single point]",–
CC(C)N(Cc1nc(-c2ccc(Cl)cc2)no1)C(=O)/C=C/c1ccccc1,–,inactive: -2.46%
Cc1nc2nc(-c3ccccc3)nn2c(C)c1Cl,"inconclusive: 89.1 µM [inhibitor, single point]",–
Oc1c(CN2CCc3ccccc3C2)cc(Cl)c2cccnc12,"inconclusive: 79.4 µM [inhibitor, single point]",–
O=C(CNC(=O)c1ccco1)NCCCc1ccccc1,–,inactive: 27.7% [at 57.1 µM]
COc1ccc(-c2c3c(=O)n(C)c(=O)n(C)c3cn2Cc2cccnc2)cc1,"inconclusive: 8.91 µM [inhibitor, single point]",–
COc1ccc(CCN2C(=O)c3oc4cc(C)cc(C)c4c(=O)c3C2c2ccccc2F)cc1OC (configuration not stated),"inconclusive: 89.1 µM [inhibitor, single point]",–
C/C(=C\C(=O)c1cccnc1)Nc1ccc(C(=O)O)cc1,"inconclusive: 89.1 µM [inhibitor, partial curve, poor fit]",–
O=C(Nc1ccccc1)c1ccc(-c2ccc([N+](=O)[O-])cc2)o1,"inconclusive: 25.1 µM [inhibitor, single point]",–
O=C(CN1C(=O)NC2(CCCCC2)C1=O)Oc1ccc2ccc(=O)oc2c1,active: 50.1 µM,–
O=C(CCCc1ccccc1)NCc1ccccn1,"inconclusive: 35.5 µM [inhibitor, single point]",–
O=C1COc2c1ccc(O)c2O,"inconclusive: 56.2 µM [inhibitor, partial curve]",–
COc1ccc(C(=O)N2CCn3c(C)ccc3C2C)cc1 (configuration not stated),"inconclusive: 89.1 µM [inhibitor, single point]",–

SMILES,Potency,"activity change, negative = inhibition"
CC(=O)c1ccc(-c2nnc(CCC(=O)N3CCCC(C(=O)CC(C)C)C3)o2)s1 (configuration not stated),"inconclusive: 70.8 µM [inhibitor, partial curve]",–
CC(=O)c1ccc(N2CCN(c3ncnc4c3nc3n4CCCC3)CC2)cc1,–,inactive: -4.77%
COc1ccccc1NS(=O)(=O)c1cccc(C(=O)N/N=C/c2ccc([N+](=O)[O-])o2)c1,active: 39.8 µM,–
CCOC(=O)c1cc(C)[nH]c(=S)c1C#N,"inconclusive: 2 µM [inhibitor, partial curve, poor fit]",–
Cc1c(NC(=O)c2cc(-c3cccc(O)c3)on2)c(=O)n(-c2ccccc2)n1C,–,inactive: -13.5%
COc1ccc(-c2nnn(CC(=O)NCCc3c[nH]c4ccccc34)n2)cc1OC,"inconclusive: 0.631 µM [inhibitor, partial curve, poor fit]",–
O=C(NCc1ccco1)C1CCCN(S(=O)(=O)c2ccc(-n3cnnn3)cc2)C1 (configuration not stated),"inconclusive: 12.6 µM [inhibitor, partial curve, poor fit]",–
O=C(Nc1ccccc1C(F)(F)F)c1ccc2oc(=O)c(S(=O)(=O)c3ccc(F)cc3)cc2c1,–,inactive: 33.2%
CCN(CC(=O)Nc1ccccc1C(F)(F)F)C(=O)Cc1ccccc1,"inconclusive: 15.8 µM [inhibitor, partial curve]",–
CC(NC(=O)Cc1cccs1)C(c1cccs1)N1CCN(c2ccccc2)CC1 (configuration not stated),–,inactive: 14.6%
C#CCNC(=O)C1=C[C@H](C2CCCCC2)[C@@H](CCCO)[C@H](OCC)O1,"inconclusive: 44.7 µM [inhibitor, partial curve]",–
CN(C)S(=O)(=O)c1ccc(C(=O)Oc2coc(CSc3ncccn3)cc2=O)cc1,"inconclusive: 25.1 µM [inhibitor, full curve, poor fit]",–
CC1(C)CC2CC(C)(CN2Cc2c(O)ccc3ccccc23)C1 (configuration not stated),"inconclusive: 56.2 µM [inhibitor, single point]",–
COc1cc(/C=C(\C#N)C(=O)NCC2CCCO2)cc(OC)c1OC (configuration not stated),"inconclusive: 31.6 µM [inhibitor, partial curve, poor fit]",–
CCCCCCSc1cc(-c2nc3cnccn3c2NCc2ccccc2)ccc1OC,"inconclusive: 31.6 µM [inhibitor, single point]",–
Cc1ccc(S(=O)(=O)NCC(=O)N(CC(=O)NCc2ccco2)Cc2ccco2)cc1,"inconclusive: 50.1 µM [inhibitor, partial curve]",–
O=C(C1=C(O)C(=O)N(Cc2ccco2)C1c1cccc(Cl)c1)c1ccco1 (configuration not stated),"inconclusive: 56.2 µM [inhibitor, partial curve]",–
Cc1nc(CCNC(=O)CC2C(=O)NCCN2Cc2ccoc2)nc2c1CCCC2 (configuration not stated),"inconclusive: 44.7 µM [inhibitor, partial curve]",–
Cc1nc(SCC(=O)c2cccc([N+](=O)[O-])c2)n[nH]1,"inconclusive: 12.6 µM [inhibitor, partial curve]",–
CC(C)NC(=S)Nc1ccc2cn[nH]c2c1,"inconclusive: 79.4 µM [inhibitor, partial curve, poor fit]",–
O=C(NCCNCCO)C1(C(F)(F)F)C/C(=C\CCO)CCCO1 (configuration not stated),"inconclusive: 31.6 µM [inhibitor, single point]",–

SMILES,Potency,"activity change, negative = inhibition"
CCN(CC)CC(=O)N1c2ccccc2Oc2c(c(=O)n(C)c(=O)n2C)C1c1cccc([N+](=O)[O-])c1 (configuration not stated),"inconclusive: 70.8 µM [inhibitor, partial curve]",–
COc1ccc(C(=O)n2nc(-c3ccco3)nc2SC)cc1OC,"inconclusive: 44.7 µM [inhibitor, single point]",–
COc1ccccc1N1C(=O)CC(N2CCc3ccccc32)C1=O (configuration not stated),"inconclusive: 22.4 µM [inhibitor, full curve]",–
O=C(CSC(=S)N1CCCC1)c1cc(Br)cc(Br)c1O,"inconclusive: 8.91 µM [inhibitor, partial curve, poor fit]",–
Cc1ccc(CNC(=O)C2CC(c3cc(C(F)(F)F)cc(C(F)(F)F)c3)=NO2)o1 (configuration not stated),"inconclusive: 28.2 µM [inhibitor, partial curve]",–
C/C(CC(=O)Nc1ccc(Cl)cc1)=N\NC(=O)C(=O)NCCO,"inconclusive: 31.6 µM [inhibitor, partial curve, poor fit]",–
CCc1n[nH]c(=S)n1/N=C/c1cc(Br)c(O)c(OC)c1,"inconclusive: 14.1 µM [inhibitor, full curve]",–
Cc1cc2c(=O)n(Cc3ccco3)c(SCC(=O)c3ccc(Cl)s3)nc2s1,"inconclusive: 11.2 µM [inhibitor, partial curve, poor fit]",–
Cc1cccc(C(=O)N2c3nc(-c4ccco4)nn3C3(CCCCC3)[C@@H]3CCCC[C@@H]32)c1,"inconclusive: 79.4 µM [inhibitor, partial curve]",–
CCN=c1sc(C(=O)NCCc2ccccc2)cc(=O)n1CC,"inconclusive: 28.2 µM [inhibitor, single point]",–
COc1ccc(CN2CCN(C(=O)CCC(=O)Nc3nnc(C(C)C)s3)CC2)cc1F,"inconclusive: 89.1 µM [inhibitor, single point]",–
O=c1ccc(-c2ccccc2)nn1Cc1ccc(F)cc1Cl,inactive,–
CC(C)N(C)CCOC(=O)c1ccccc1Br,–,inactive: -5.13% [at 57.1 µM]
Cc1ccc(S(=O)(=O)Nc2c(O)ccc3ccccc23)cc1,"inconclusive: 39.8 µM [inhibitor, partial curve]",–
O=C1c2c(O)cc(O)cc2OC(c2ccc(O)c(O)c2)C1O (configuration not stated),"inconclusive: 37.7 µM [inhibitor, single point] and inconclusive: 8.44 µM [inhibitor, full curve]",–
CCCCOC(=O)/C=C\C(=O)NC(N)=O,"inconclusive: 25.1 µM [inhibitor, full curve, poor fit]",–
Cc1nc(C)c(/C(O)=C/c2nc3ccccc3oc2=O)s1,"inconclusive: 39.8 µM [inhibitor, single point]",–
Cc1ccc(S(=O)(=O)N2CCN(C(=O)C(C)Cn3nc(C)c(C)c3C)CC2)cc1C (configuration not stated),–,inactive: 11.2%
COc1ccccc1CNC(=O)c1cc(S(=O)(=O)N2CCCCC2)c[nH]1,"inconclusive: 39.8 µM [inhibitor, single point]",–
COc1ccccc1C1C([N+](=O)[O-])=CC([N+](=O)[O-])=CN1C (configuration not stated),"inconclusive: 50.1 µM [inhibitor, partial curve]",–
